From the supplement of paper PMC6609913
Structures can show the parent of a compound that is named as a salt. ± gives the standard deviation of the averaged measurements. In all, about 1,300 compounds were measured (“normalised cell viability”: median about 1, lowest 2% from about 0.15 on). The list shows a part of the results.

Tested on: V-C8 + BRCA2 (BRCA2-proficient hamster cells)
Assay: normalised cell viability (fraction of plate median); higher = more viable cells (less toxic)
Settings: 5 µM
Summary of the method: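 Library drugs, held as 10 mM stocks in DMSO, were diluted to 5 μM in 100 μl medium and added to 96-well plates of V-C8 hamster cells, either lacking BRCA2 or with BRCA2 restored, 24 h after seeding. Plates ran for 3 days (screen 1) or 6 days (screen 2), alongside solvent-only wells. Viability came from a resazurin readout, median-plate normalised, as the mean of triplicate wells.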

Compound	normalised cell viability (treatment time: 3 days)	normalised cell viability (treatment time: 6 days)
OCCOCCN1CCN(C2=Nc3ccccc3Sc3ccccc32)CC1 [Quetiapine]	1.065 ± 0.0087	1.12 ± 0.023
CCC(=O)O[C@@H](O[P@](=O)(CCCCc1ccccc1)CC(=O)N1C[C@H](C2CCCCC2)C[C@H]1C(=O)O)C(C)C [Fosinopril]	1.04 ± 0.051	1.06 ± 0.021
COc1cccc2c1C(=O)c1c(O)c3c(c(O)c1C2=O)C[C@@](O)(C(=O)CO)C[C@@H]3O[C@H]1C[C@H](N)[C@H](O)[C@H](C)O1 [Doxorubicin hydrochloride]	0.12 ± 0.0088	0.122 ± 0.0099
CC1(C)S[C@@H]2[C@H](NC(=O)[C@H](N)c3ccc(O)cc3)C(=O)N2[C@H]1C(=O)O [Amoxicillin]	1.17 ± 0.094	0.971 ± 0.091
CCCCC(=O)O[C@H]1CC[C@H]2[C@@H]3CCc4cc(O)ccc4[C@H]3CC[C@]12C [Estradiol Valerate]	1.17 ± 0.33	1.12 ± 0.24
N=C(N)c1ccc(OCCCCCOc2ccc(C(=N)N)cc2)cc1 [Pentamidine isethionate]	0.898 ± 0.076	0.844 ± 0.11
Fc1ccc(C(c2ccc(F)cc2)N2CCN(C/C=C/c3ccccc3)CC2)cc1 [Flunarizine dihydrochloride]	0.932 ± 0.058	0.931 ± 0.015
Cc1oncc1C(=O)Nc1ccc(C(F)(F)F)cc1 [Leflunomide]	1.01 ± 0.062	0.988 ± 0.032
COc1ccc(C(Cl)=C(c2ccc(OC)cc2)c2ccc(OC)cc2)cc1 [Chlorotrianisene]	1.06 ± 0.02	1.16 ± 0.31
O=C(O)c1cccnc1Nc1cccc(C(F)(F)F)c1 [Niflumic acid]	1.04 ± 0.027	1.03 ± 0.034
CC(CCc1ccccc1)NCC(O)c1ccc(O)c(C(N)=O)c1 (stereo unspecified) [Labetalol hydrochloride]	1.04 ± 0.022	1.02 ± 0.012
CCOC(=O)[C@H](CCc1ccccc1)N[C@@H](C)C(=O)N1Cc2ccccc2C[C@H]1C(=O)O [Quinapril HCl]	0.9969 ± 0.0022	0.954 ± 0.092
CN1C(C)(C)CCCC1(C)C [Pempidine tartrate]	1.1 ± 0.035	1.007 ± 0.0034
Cc1onc(-c2c(Cl)cccc2Cl)c1C(=O)N[C@@H]1C(=O)N2[C@@H]1SC(C)(C)[C@@H]2C(=O)O [Dicloxacillin sodium salt hydrate]	1.04 ± 0.073	0.953 ± 0.029
CN(C)/N=N/c1[nH]cnc1C(N)=O [Dacarbazine]	1 ± 0.022	0.992 ± 0.052
C[N+](C)(C)CCCCCC[N+](C)(C)C [Hexamethonium dibromide dihydrate]	1.06 ± 0.019	0.993 ± 0.059
CC[N+](C)(C)Cc1ccccc1Br [Bretylium tosylate]	0.9932 ± 0.0068	0.977 ± 0.013
Cc1cc2c(cc1S(N)(=O)=O)S(=O)(=O)CCC2 [Meticrane]	1.01 ± 0.018	0.997 ± 0.045
NCCNCCNCCNCCN [Tetraethylenepentamine pentahydrochloride]	0.972 ± 0.03	1.01 ± 0.024
Clc1cnccn1 [2-Chloropyrazine]	1.02 ± 0.036	1.02 ± 0.071
COC(=O)Nc1nc2cc(C(=O)c3ccccc3)ccc2[nH]1 [Mebendazole]	0.163 ± 0.013	0.151 ± 0.0072

Compound	normalised cell viability (treatment time: 3 days)	normalised cell viability (treatment time: 6 days)
CC1(C)S[C@@H]2[C@H](NC(=O)[C@H](NC(=O)N3CCNC3=O)c3ccccc3)C(=O)N2[C@H]1C(=O)O [Azlocillin sodium salt]	0.986 ± 0.02	0.758 ± 0.17
CC(C)c1ccc2oc3nc(N)c(C(=O)O)cc3c(=O)c2c1 [Amlexanox]	1.04 ± 0.021	1.03 ± 0.071
CSc1ccc2c(c1)C(N1CCN(C)CC1)Cc1ccccc1S2 (stereo unspecified) [Methiothepin maleate]	0.79 ± 0.056	0.783 ± 0.02
CC(C(=O)O)c1ccc2c(c1)Cc1cccnc1O2 (stereo unspecified) [Pranoprofen]	1.23 ± 0.031	1.03 ± 0.057
Cc1c(C)c2c(c(C)c1O)CCC(C)(COc1ccc(CC3SC(=O)NC3=O)cc1)O2 (stereo unspecified) [Troglitazone]	0.748 ± 0.0081	0.709 ± 0.054
COC(c1ccccc1)(c1ccccc1)[C@H](Oc1nc(C)cc(C)n1)C(=O)O [Ambrisentan]	1.02 ± 0.066	1.14 ± 0.086
COc1ccc([C@@H]2CC(=O)c3c(O)cc(O[C@@H]4O[C@H](CO[C@@H]5O[C@@H](C)[C@H](O)[C@@H](O)[C@H]5O)[C@@H](O)[C@H](O)[C@H]4O)cc3O2)cc1O [Hesperidin]	1 ± 0.04	1.05 ± 0.086
CC(C)(C(=O)O)c1ccc(C(O)CCCN2CCC(C(O)(c3ccccc3)c3ccccc3)CC2)cc1 (stereo unspecified) [Fexofenadine HCl]	1.02 ± 0.051	1.04 ± 0.026
CN(C)CCCN1c2ccccc2Sc2ccccc21 [Promazine hydrochloride]	1.05 ± 0.046	0.665 ± 0.067
Cc1cc(C(C)(C)C)c(O)c(C)c1CC1=NCCN1 [Oxymetazoline hydrochloride]	1.02 ± 0.063	0.969 ± 0.033
NS(=O)(=O)c1cc(C(=O)O)cc(N2CCCC2)c1Oc1ccccc1 [Piretanide]	0.989 ± 0.054	0.982 ± 0.098
CC(=O)NCCCS(=O)(=O)O [Acamprosate calcium]	1.08 ± 0.015	1.12 ± 0.068
CCOC(=O)O[C@]1(C(=O)COC(=O)CC)CC[C@H]2[C@@H]3CCC4=CC(=O)C=C[C@]4(C)[C@H]3[C@@H](O)C[C@@]21C [Prednicarbate]	0.878 ± 0.049	0.96 ± 0.079
CC(C)(C)NCC(O)COc1cccc2c1CCC(=O)N2 (stereo unspecified) [Carteolol hydrochloride]	1.06 ± 0.052	1.06 ± 0.044
C=C1c2c(Cl)ccc(O)c2C(=O)C2=C(O)[C@]3(O)C(=O)C(C(N)=O)=C(O)[C@@H](N(C)C)[C@@H]3[C@@H](O)[C@H]12.O=C(O)c1cc(S(=O)(=O)O)ccc1O [Meclocycline sulfosalicylate]	1.02 ± 0.022	0.983 ± 0.025
Nc1nc2ccc(OC(F)(F)F)cc2s1 [Riluzole hydrochloride]	0.998 ± 0.051	0.948 ± 0.057
CN1CCC(=C2c3ccccc3CCc3cccnc32)CC1 [Azatadine maleate]	1.03 ± 0.07	1.07 ± 0.096
COc1ccc2c(c1)c(CC(=O)O)c(C)n2C(=O)c1ccc(Cl)cc1 [Indomethacin]	1 ± 0.019	1.01 ± 0.06
C(=C\c1ccccc1)/CN1CCN(C(c2ccccc2)c2ccccc2)CC1 [Cinnarizine]	1.03 ± 0.036	1.02 ± 0.082
O=C(C1CCCCC1)N1CC(=O)N2CCc3ccccc3C2C1 (stereo unspecified) [Praziquantel]	1.12 ± 0.04	1.03 ± 0.093
CC(=O)c1ccc2c(c1)N(CCCN(C)C)c1ccccc1S2 [Acetopromazine maleate salt]	1.06 ± 0.031	1.04 ± 0.033

Compound	normalised cell viability (treatment time: 3 days)	normalised cell viability (treatment time: 6 days)
CN(C)CCOC(C)(c1ccccc1)c1ccccn1 (stereo unspecified) [Doxylamine succinate]	0.988 ± 0.049	1.02 ± 0.0094
Oc1c(I)cc(Cl)c2cccnc12 [Clioquinol]	0.953 ± 0.097	0.984 ± 0.061
CC(C)(C#N)c1cc(Cn2cncn2)cc(C(C)(C)C#N)c1 [Anastrozole]	0.967 ± 0.03	1.03 ± 0.029
CN(C(=O)C(Cl)Cl)c1ccc(OC(=O)c2ccco2)cc1 [Diloxanide furoate]	1.01 ± 0.039	1.04 ± 0.042
Nc1ccn([C@H]2CC[C@@H](CO)O2)c(=O)n1 [Zalcitabine]	0.965 ± 0.091	1.07 ± 0.025
CN1CCN(CCCN2c3ccccc3Sc3ccc(C(F)(F)F)cc32)CC1 [Trifluoperazine dihydrochloride]	0.728 ± 0.0074	0.71 ± 0.016
CN(C)CCN1C(=O)c2ccccc2N(C)c2ccccc21 [Dibenzepine hydrochloride]	0.778 ± 0.043	0.83 ± 0.042
COc1ccc(OC)c(C(O)CNC(=O)CN)c1 (stereo unspecified) [Midodrine hydrochloride]	1.02 ± 0.022	0.9977 ± 0.0095
CC[C@H](C)[C@H](N)C1=N[C@H](C(=O)N[C@@H](CC(C)C)C(=O)N[C@H](CCC(=O)O)C(=O)N[C@H](C(=O)N[C@H]2CCCCNC(=O)[C@H](CC(N)=O)NC(=O)[C@@H](CC(=O)O)NC(=O)[C@H](Cc3cnc[nH]3)NC(=O)[C@@H](Cc3ccccc3)NC(=O)[C@H]([C@@H](C)CC)NC(=O)[C@@H](CCCN)NC2=O)[C@@H](C)CC)CS1 [Bacitracin]	1.07 ± 0.076	1.03 ± 0.035
Cc1c(N(C)C)c(=O)n(-c2ccccc2)n1C [Amidopyrine]	0.945 ± 0.04	0.995 ± 0.063
Oc1c(Cl)cc(Cl)c(Cl)c1Cc1c(O)c(Cl)cc(Cl)c1Cl [Hexachlorophene]	0.463 ± 0.0083	0.558 ± 0.042
COc1ccc(/C=C/C(=O)Nc2ccccc2C(=O)O)cc1OC [Tranilast]	0.96 ± 0.032	1.05 ± 0.054
CCOC(=O)C1=C(COCCN)NC(C)=C(C(=O)OC)C1c1ccccc1Cl (stereo unspecified) [Amlodipine]	0.92 ± 0.047	0.873 ± 0.033
CN1[C@@H]2CC[C@H]1C[C@@H](OC(=O)c1c[nH]c3ccccc13)C2 [Tropisetron HCl]	1.05 ± 0.12	1.24 ± 0.074
Cc1cccc(C)c1OCC(C)N (stereo unspecified) [Mexiletine hydrochloride]	0.978 ± 0.044	0.928 ± 0.043
NC[C@@H]1O[C@H](O[C@H]2[C@@H](O)[C@H](O[C@@H]3[C@@H](O)[C@H](N)C[C@H](N)[C@H]3O[C@H]3O[C@H](CO)[C@@H](O)[C@H](O)[C@H]3N)O[C@@H]2CO)[C@H](N)[C@@H](O)[C@@H]1O [Paromomycin sulfate]	1.028 ± 0.0087	1.11 ± 0.034
COc1ccccc1OCC(O)CO (stereo unspecified) [Guaifenesin]	1.02 ± 0.045	1.08 ± 0.23
CC(=O)[C@H]1CC[C@H]2[C@@H]3C=CC4=CC(=O)CC[C@@]4(C)[C@@H]3CC[C@]12C [Dydrogesterone]	1.07 ± 0.04	1.29 ± 0.038
C[C@H]1O[C@@H](O[C@H]2[C@@H](O)C[C@H](O[C@H]3[C@@H](O)C[C@H](O[C@H]4CC[C@@]5(C)[C@H](CC[C@@H]6[C@@H]5C[C@@H](O)[C@]5(C)[C@@H](C7=CC(=O)OC7)CC[C@]65O)C4)O[C@@H]3C)O[C@@H]2C)C[C@H](O)[C@@H]1O [Digoxin]	1.06 ± 0.036	1.07 ± 0.13
COc1cc([S+](C)[O-])ccc1-c1nc2cccnc2[nH]1 (stereo unspecified) [Sulmazole]	1.2 ± 0.33	1.1 ± 0.045
O=C(OCC(O)CO)c1ccccc1Nc1ccnc2cc(Cl)ccc12 (stereo unspecified) [Glafenine hydrochloride]	0.98 ± 0.07	1.04 ± 0.051
